The values below come from patent publication US20230312682A1 (published 2023).

Where two headings read alike, the source gives them in different places.

Experiment [1] deals with T1, CD47 on the surfaces of cells (human, UniProt Q08722).
T1 construct: whole, on cells; The cell type is named in the assay or readout of each row; also called CD47 on the surfaces of Daudi cells; CD47 on the surface of a cell
Put plainly: flow cytometry on Daudi cells, FITC anti-human Fc. How it is done:
The binding capacity of the prepared SIRP-Fc-IgG1 mutants to CD47 on the surfaces of Daudi cells (human lymphoma cells) was determined by flow cytometry. Experimental procedure: After being counted, Daudi cells were inoculated into a 96-well round-bottom culture plate at 2E5 cells/150 μL by using a PBS solution containing 1% bovine serum albumin (BSA). To the 96-well plate described above were added 50 μL of SIRPα-Fc fusion protein mutants serially diluted with the PBS solution. The plate was incubated at room temperature for 1 h and then centrifuged, and the supernatant was discarded. Then the cells were washed twice with PBS. An FITC-labeled goat anti-human (Fc-Specific) antibody (1:1000 diluted with PBS containing 1% BSA) was added. The plate was incubated at room temperature for half an hour and centrifuged, and the cells were washed and then tested for mean fluorescence intensity (MFI) in the FITC channel on a flow cytometer (CytoFLEX Cytometer System, purchased from Beckman Coulter). The experimental data were processed using the software provided with the flow cytometer, and the mean fluorescence intensity was calculated. The data were analyzed and plotted in GraphPad Prism 6, and EC₅₀ was calculated.

The target of experiment [2] is T2, CD47-His (human, UniProt Q08722 part only).
T2 construct: also called Human CD47-His; SIRPα-Fc fusion protein's ligand CD47-His
Put plainly: ELISA, plate coated with CD47-His, anti-human Fc-HRP detection. The method, then: (§1) Method: Human CD47-His prepared in Example 1.3 was diluted to 100 ng/mL with a sodium carbonate buffer, and then the dilution was added to a microplate at 100 μL per well. The plate was incubated at room temperature for 2 h and washed with PBST. The plate was blocked by adding PBST containing 1% bovine serum albumin (BSA) to each well and incubated at room temperature for 1 h. The plate was washed twice with PBST, and serially diluted antibodies or fusion proteins were added. The plate was incubated for half an hour and washed twice with PBST. A properly diluted HRP-labeled goat anti-human (Fc-Specific) secondary antibody was added, and the plate was incubated for half an hour. After the plate was washed, a color developing solution was added for color development, and the color development was terminated with a stop solution. The OD450 was read using on a microplate reader. The data were analyzed in GraphPad Prism 6 and plotted, and EC₅₀ was calculated.

Experiment [3] deals with T2, CD47-His. Described as above. How it is done: as §1
This is another data set of the same source.

B1: Mutant-I31L + V27L (Fc fusion)
chain: EEELQVIQPDKSVSVAAGESAILHCTLTSLLPVGPIQWFRGAGPARELIYNQKEGHFPRVTTVSESTKRENMDFSISISNITPADAGTYYCVKFRKGSPDTEFKSGAGTELSVRAKPSGGGGS[sequence of human IgG1 Fc omitted]
notes: SIRP-Fc-IgG1 mutant, IgG1 Fc; also called M27; Mutant-131L + V27L
B1: the midpoint of the response in experiment [1], the EC50, lay at 0.208 nM.

B2: Mutant-F103I + K104Q (Fc fusion)
chain: EEELQVIQPDKSVSVAAGESAILHCTVTSLIPVGPIQWFRGAGPARELIYNQKEGHFPRVTTVSESTKRENMDFSISISNITPADAGTYYCVKFRKGSPDTEIQSGAGTELSVRAKPSGGGGS[sequence of human IgG1 Fc omitted]
notes: SIRP-Fc-IgG1 mutant; also called M23
Regarding B2, in the experiment with CD47-His [2], a half-maximal response (EC50) required 1.89 nM and the “Height of top plateau” value came to 0.0881 OD450.

B3: Mutant-N51S + Q52F + K53T + E54T + G55E (Fc fusion)
chain: EEELQVIQPDKSVSVAAGESAILHCTVTSLIPVGPIQWFRGAGPARELIYSFTTEHFPRVTTVSESTKRENMDFSISISNITPADAGTYYCVKFRKGSPDTEFKSGAGTELSVRAKPSGGGGS[sequence of human IgG1 Fc omitted]
notes: SIRP-Fc-IgG1 mutant; also called M14
As for B3, in the experiment with CD47-His [2], a half-maximal effect (EC50) was put at 0.456 nM and the “Height of top plateau” value amounted to 0.054 OD450.

B4: Mutant-P44Q + A45S (Fc fusion)
chain: EEELQVIQPDKSVSVAAGESAILHCTVTSLIPVGPIQWFRGAGQSRELIYNQKEGHFPRVTTVSESTKRENMDFSISISNITPADAGTYYCVKFRKGSPDTEFKSGAGTELSVRAKPSGGGGS[sequence of human IgG1 Fc omitted]
notes: SIRP-Fc-IgG1 mutant; also called M12
B4: in the experiment with CD47-His [2], the EC50 stood at 0.187 nM and the “Height of top plateau” value stood at 0.0783 OD450.

B5: Mutant-E65D + S66A (Fc fusion)
chain: EEELQVIQPDKSVSVAAGESAILHCTVTSLIPVGPIQWFRGAGPARELIYNQKEGHFPRVTTVSDATKRENMDFSISISNITPADAGTYYCVKFRKGSPDTEFKSGAGTELSVRAKPSGGGGS[sequence of human IgG1 Fc omitted]
notes: SIRP-Fc-IgG1 mutant; also called M16
As to B5, in the experiment with CD47-His [2], the EC50 was 0.122 nM and the “Height of top plateau” value worked out at 0.152 OD450.

B6: Mutant-I31L + V27L + L4V + Q5K (Fc fusion)
chain: EEEVKVIQPDKSVSVAAGESAILHCTLTSLLPVGPIQWFRGAGPARELIYNQKEGHFPRVTTVSESTKRENMDFSISISNITPADAGTYYCVKFRKGSPDTEFKSGAGTELSVRAKPSGGGGS[sequence of human IgG1 Fc omitted]
notes: SIRP-Fc-IgG1 mutant, IgG1 Fc; also called M28
As for B6, the EC50 in experiment [1] was 0.211 nM.

B7: SIRP6-IgG4-A66G (Fc fusion)
chain: EEELQVIQPDKSVSVAAGESAILHCTLTSLLPVGPIQWFRGAGPARQLIYNQKEGHFPRVTTVSDGTKRSNMDFSISISNITPADAGTYYCVKFRKGSPDTEFKSGAGTELSVRAKPSGGGGS[sequence of human IgG4 Fc with S228P (EU numbers) omitted]
notes: Site-directed mutant of SIRP6-IgG4 (position 66 is A in SIRP6 after S66A)
On to B7, for which, in the experiment with CD47-His [2], the EC50 was found to be 0.0434 nM and the Top is 1.62 OD450.

B8: SIRP6-IgG4-H56R (Fc fusion)
chain: EEELQVIQPDKSVSVAAGESAILHCTLTSLLPVGPIQWFRGAGPARQLIYNQKEGRFPRVTTVSDATKRSNMDFSISISNITPADAGTYYCVKFRKGSPDTEFKSGAGTELSVRAKPSGGGGS[sequence of human IgG4 Fc with S228P (EU numbers) omitted]
notes: Site-directed mutant of SIRP6-IgG4
For the molecule B8, in the experiment with CD47-His [2], the EC50 is 0.051 nM and the Top was found to be 1.6 OD450.

B9: SIRP6-IgG4-H56N (Fc fusion)
chain: EEELQVIQPDKSVSVAAGESAILHCTLTSLLPVGPIQWFRGAGPARQLIYNQKEGNFPRVTTVSDATKRSNMDFSISISNITPADAGTYYCVKFRKGSPDTEFKSGAGTELSVRAKPSGGGGS[sequence of human IgG4 Fc with S228P (EU numbers) omitted]
notes: as for B8
In the experiment with CD47-His [2], B9 registered an EC50 of 0.0431 nM and a Top of 1.63 OD450.

B10: SIRP6-IgG4-H56Q (Fc fusion)
chain: EEELQVIQPDKSVSVAAGESAILHCTLTSLLPVGPIQWFRGAGPARQLIYNQKEGQFPRVTTVSDATKRSNMDFSISISNITPADAGTYYCVKFRKGSPDTEFKSGAGTELSVRAKPSGGGGS[sequence of human IgG4 Fc with S228P (EU numbers) omitted]
notes: as for B8
With B10, in the experiment with CD47-His [2], the EC50 turned out to be 0.0641 nM and the Top turned out to be 1.44 OD450.

B11: SIRP6-IgG4-V6L + H56N (Fc fusion)
chain: EEELQLIQPDKSVSVAAGESAILHCTLTSLLPVGPIQWFRGAGPARQLIYNQKEGNFPRVTTVSDATKRSNMDFSISISNITPADAGTYYCVKFRKGSPDTEFKSGAGTELSVRAKPSGGGGS[sequence of human IgG4 Fc with S228P (EU numbers) omitted]
B11: in the experiment with CD47-His [3], the EC50 is 0.0453 nM and the Top was 1.67 OD450.

B12: SIRP6-IgG4-K53R (Fc fusion)
chain: EEELQVIQPDKSVSVAAGESAILHCTLTSLLPVGPIQWFRGAGPARQLIYNQREGHFPRVTTVSDATKRSNMDFSISISNITPADAGTYYCVKFRKGSPDTEFKSGAGTELSVRAKPSGGGGS[sequence of human IgG4 Fc with S228P (EU numbers) omitted]
notes: as for B8
On to B12, for which, in the experiment with CD47-His [2], the midpoint of the response, the EC50, lay at 0.0384 nM and the Top was determined as 1.7 OD450.

B13: SIRP6-IgG4-A66L (Fc fusion)
chain: EEELQVIQPDKSVSVAAGESAILHCTLTSLLPVGPIQWFRGAGPARQLIYNQKEGHFPRVTTVSDLTKRSNMDFSISISNITPADAGTYYCVKFRKGSPDTEFKSGAGTELSVRAKPSGGGGS[sequence of human IgG4 Fc with S228P (EU numbers) omitted]
notes: as for B8
In the experiment with CD47-His [2], B13 had an EC50 of 0.0508 nM and a Top of 0.913 OD450.

B14: SIRP6-IgG4-A66T (Fc fusion)
chain: EEELQVIQPDKSVSVAAGESAILHCTLTSLLPVGPIQWFRGAGPARQLIYNQKEGHFPRVTTVSDTTKRSNMDFSISISNITPADAGTYYCVKFRKGSPDTEFKSGAGTELSVRAKPSGGGGS[sequence of human IgG4 Fc with S228P (EU numbers) omitted]
notes: as for B8
Consider B14, for which, in the experiment with CD47-His [2], the EC50 is 0.0748 nM and the Top stood at 1.39 OD450.

B15: mSIRP-Fc-IgG1 (Fc fusion)
chain: TEVKVIQPEKSVSVAAGDSTVLNCTLTSLLPVGPIRWYRGVGQSRQLIYSFTTEHFPRVTNVSDATKRSNLDFSIRISNVTPEDAGTYYCVKFQRGSPDTEIQSGGGTEVYVLAKGGGGS[sequence of human IgG1 Fc omitted]
notes: also called wild-type mouse SIRPα-Fc fusion protein
As for B15, in experiment [1], it took 1.2 nM to reach a half-maximal effect (EC50) and the “Height of top plateau” value was 2580 MFI. Moreover, in the experiment with CD47-His [2], the EC50 came out at 0.126 nM and the “Height of top plateau” value stood at 0.579 OD450.

B16: Mutant-I31L + V27L + L4V + Q5K + E1# + E2T + E65D + S66A (Fc fusion)
chain: TEVKVIQPDKSVSVAAGESAILHCTLTSLLPVGPIQWFRGAGPARELIYNQKEGHFPRVTTVSDATKRENMDFSISISNITPADAGTYYCVKFRKGSPDTEFKSGAGTELSVRAKPSGGGGS[sequence of human IgG1 Fc omitted]
notes: SIRP-Fc-IgG1 mutant, IgG1 Fc; also called M30
On to B16, for which, in experiment [1], the response was half-maximal at 0.154 nM (EC50) and the “Height of top plateau” value was 3780 MFI.

B17: Mutant-I31L + V27L + L4V + Q5K + E1# + E2T + E65D + S66A + E47Q (Fc fusion)
chain: TEVKVIQPDKSVSVAAGESAILHCTLTSLLPVGPIQWFRGAGPARQLIYNQKEGHFPRVTTVSDATKRENMDFSISISNITPADAGTYYCVKFRKGSPDTEFKSGAGTELSVRAKPSGGGGS[sequence of human IgG1 Fc omitted]
notes: SIRP-Fc-IgG1 mutant, IgG1 Fc; also called M31; Mutant-131L + V27L + L4V + Q5K + E1# + E2T + E65D + S66A + E47Q
For the molecule B17, in experiment [1], it took 0.135 nM to reach a half-maximal effect (EC50) and the “Height of top plateau” value came out at 3690 MFI.

B18: Mutant-I31L + V27L + L4V + Q5K + E1# + E2T (Fc fusion)
chain: TEVKVIQPDKSVSVAAGESAILHCTLTSLLPVGPIQWFRGAGPARELIYNQKEGHFPRVTTVSESTKRENMDFSISISNITPADAGTYYCVKFRKGSPDTEFKSGAGTELSVRAKPSGGGGS[sequence of human IgG1 Fc omitted]
notes: SIRP-Fc-IgG1 mutant, IgG1 Fc; also called M29
In turn, B18 had an EC50 in experiment [1] of 0.212 nM.

B19: Mutant-I31L + V27L + L4V + Q5K + E1# + E2T + E65D + S66A + E47Q + E70S (Fc fusion)
chain: TEVKVIQPDKSVSVAAGESAILHCTLTSLLPVGPIQWFRGAGPARQLIYNQKEGHFPRVTTVSDATKRSNMDFSISISNITPADAGTYYCVKFRKGSPDTEFKSGAGTELSVRAKPSGGGGS[sequence of human IgG1 Fc omitted]
notes: also called M32
As to B19, in experiment [1], the EC50 came to 0.139 nM.
